# Screen size: about 220,000 compounds; about 16,000 (7.3%) were called active. This list was built around the results that the source calls inconclusive (neither active nor inactive); the mix of calls is not that of the screen. Calls come from the whole dose curve; as a rule, active = well fitted inhibition curve with a large enough effect (not every such curve was filed as active); inconclusive = small, poorly fitted or top-dose-only effect, or another doubt; inactive = no such curve, though single readings can be large or run the other way. Potencies of inconclusive entries are left out as doubtful fits.
# Target: Aldehyde dehydrogenase 1A1 (Homo sapiens) (UniProt P00352)
# Sequence of UniProt P00352 (P00352 whole entry, looked up): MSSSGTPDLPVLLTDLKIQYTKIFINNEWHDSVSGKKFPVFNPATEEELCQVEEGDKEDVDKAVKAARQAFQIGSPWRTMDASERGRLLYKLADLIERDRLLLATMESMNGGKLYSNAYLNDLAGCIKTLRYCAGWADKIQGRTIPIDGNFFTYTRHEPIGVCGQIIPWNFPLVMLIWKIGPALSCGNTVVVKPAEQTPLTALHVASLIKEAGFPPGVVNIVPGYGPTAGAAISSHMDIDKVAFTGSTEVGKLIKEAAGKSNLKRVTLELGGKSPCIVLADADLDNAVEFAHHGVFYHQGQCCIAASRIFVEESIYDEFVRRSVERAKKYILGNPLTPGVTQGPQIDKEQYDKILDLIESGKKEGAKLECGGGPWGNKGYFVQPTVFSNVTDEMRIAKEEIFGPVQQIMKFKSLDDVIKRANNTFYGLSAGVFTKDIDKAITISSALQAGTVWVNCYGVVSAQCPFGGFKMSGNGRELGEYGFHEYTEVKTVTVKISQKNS
# Assay: qHTS Assay for Inhibitors of Aldehyde Dehydrogenase 1 (ALDH1A1);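 for activity, negative = inhibition: plate controls were no enzyme wells and a reference inhibitor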
# Conditions: Purified ALDH1A1, NADH fluorescence, propionaldehyde substrate; series mostly up to 75.3 µM; activity, negative = inhibition: at the top concentration
# Potency is the fitted concentration of half-maximal effect; tags give direction and shape of the fitted curve.
SMILES,"activity, negative = inhibition",Potency
OCC1(Cc2ccccc2)CCCN(Cc2c[nH]c3ccccc23)C1 (stereo not given),inactive: 2.1%,
C#CCCCO/N=C1/C[C@@H](O)[C@@H](O)[C@@H]2[C@@H]3C(=O)N(c4cccc(Oc5ccccc5)c4)C(=O)[C@H]3CC[C@@H]12,inactive: -3.88% [at 13.5 µM],
Cc1nn(C)cc1C(C)NCc1c(C(=O)N2CCCCCCC2)nc2ccc(Cl)cn12 (stereo not given),,active: 3.16 µM
Cc1ccccc1C(=O)Nc1ccnc(-c2ccncc2)n1,,"inconclusive [inhibitor, single point]"
CCN(CC)c1ccc(C2N(C(=O)N3CCOCC3)CCN2S(=O)(=O)c2ccc(C)cc2)cc1 (stereo not given),,active: 7.94 µM
COC(=O)c1ccc(NC(=O)Nc2ccc(F)c(Cl)c2)cc1,inactive: 5.13%,
Cc1cccc(NC(=O)CN2C(=O)N/C(=C/c3ccc(-c4cccc(C(=O)O)c4C)o3)C2=O)c1,inactive: -0.808%,
CC1(C)Cc2ccccc2C(c2cc3ccccc3oc2=O)=N1,,"inconclusive [inhibitor, partial curve, poor fit]"
CCCCCCCC1=CC2=C(Cl)C(=O)C(C)(OC(C)=O)C(=O)C2=CN1C (stereo not given),inactive: -11.5%,
O=C(Nc1ccc(N2CCCCC2)cc1)C(Cl)c1ccccc1 (stereo not given),,"inconclusive [inhibitor, full curve, poor fit]"
Cc1[nH]c(=O)[nH]c(=O)c1S(=O)(=O)N1CCC(C(=O)N2CCN(Cc3ccccc3)CC2)CC1,,"inconclusive [inhibitor, single point]"
C/C(=N\NC(=O)c1nn(C)c(C)c1Br)c1ccc(NC(=O)c2ccoc2C)cc1,,"inconclusive [inhibitor, partial curve]"
Cc1ccc(NC(=O)COC(=O)/C=C/c2ccc(Br)o2)cc1S(=O)(=O)N(C)C,,active: 20 µM
Cc1csc2nc3ccccc3c(=O)n12,,"inconclusive [inhibitor, single point]"
Cc1ccc(-n2c(C)cc(/C=N/NC(=O)Cn3c4ccccc4c(=O)c4ccccc43)c2C)cc1,,"inconclusive [inhibitor, partial curve]"
COc1ccc(-c2ccc(Nc3ccc(C(=O)N4CCOCC4)cc3)nn2)cc1OC,inactive: 0.0316%,
C=CCn1c(CCSCc2ccc(OC)c(C)c2)n[nH]c1=S,,"inconclusive [inhibitor, partial curve]"
CCOC(=O)N1CCN(C(=O)C2CCN(c3ncnc4c3sc3cccc(F)c34)CC2)CC1,,"inconclusive [inhibitor, partial curve]"
Cc1ccc(S(=O)(=O)N2CCN(C(=O)N(c3ccccc3)c3ccccc3)CC2)cc1,,"inconclusive [inhibitor, single point]"
CCNC(=S)N1CCN(S(=O)(=O)c2ccc(C)cc2)CC1,,"inconclusive [inhibitor, single point]"
COc1cc2c(cc1NC(=O)COC(=O)C(CCSC)NC(=O)c1ccccc1Cl)oc1ccccc12 (stereo not given),,"inconclusive [inhibitor, partial curve]"
CCOc1ccc2c(C)c(C)c(=O)oc2c1OCC,,"inconclusive [inhibitor, single point]"
O=C(NC1CCCCC1)C1CCC(CNS(=O)(=O)c2cccc3nsnc23)CC1 (stereo not given),,"inconclusive [inhibitor, full curve]"

SMILES,"activity, negative = inhibition",Potency
CCOc1ccc(Cn2nnc(C(=O)NCc3ccc(OC)cc3)c2N)cc1,inactive: 2.39%,
CN(C)C(=O)N1CCCC(C(=O)NCc2cccs2)C1 (stereo not given),inactive: -0.624%,
O=C(NNC(=O)c1ccccc1C(=O)O)c1ccc(-c2ccccc2)cc1,,"inconclusive [inhibitor, full curve]"
C#Cc1ccc([C@@H]2C=C(C(=O)NCc3ccccc3)O[C@H](OCc3ccc(CO)cc3)C2)cc1,,"inconclusive [inhibitor, partial curve]"
Fc1ccccc1N1CC(c2ccccc2)C(c2cccs2)=N1 (stereo not given),,"inconclusive [inhibitor, partial curve]"
CN(C(=O)CN1CCC(NC(=O)C2CCCCC2)CC1)C1CCCCC1,,"inconclusive [inhibitor, single point]"
C=CCOc1ccccc1CN1CCSCC1,,"inconclusive [inhibitor, partial curve]"
CC(=O)C1=C(O)C(=O)N(c2ccc(Br)cn2)C1c1ccccc1F (stereo not given),,"inconclusive [inhibitor, single point]"
CC(=Nc1ccccc1)C1=C(O)CSC1=O,,active: 25.1 µM
Fc1ccc(Nc2nc(Oc3ccccc3F)nc(N3CCCC3)n2)cc1,,"inconclusive [inhibitor, single point]"
O=C(c1ccc2nc(N3CCCCC3)sc2c1)N1CCN(Cc2ccc3c(c2)OCO3)CC1,,"inconclusive [inhibitor, single point]"
COCC(C)NC(C(=O)Nc1ccc(C)c(Cl)c1)c1ccccc1 (stereo not given),,"inconclusive [inhibitor, single point]"
CC1CCN(S(=O)(=O)c2ccc3c(c2)oc(=O)n3CC(=O)N2c3ccccc3CC2C)CC1 (stereo not given),inactive: 5.06%,
Cn1c(=S)n(CCC(=O)O)c2ccccc21,inactive: -1.28%,
CN(C)CCNc1nc2sc3c(c2c(=O)n1-c1ccc(F)cc1)CCCCC3,,"inconclusive [inhibitor, partial curve]"
c1cncc(-c2nc(-c3ccco3)cs2)c1,,active: 1.26 µM
CCCCN(CCCC)c1nc2ccccc2nc1C(C#N)C(=O)NCCCOC (stereo not given),,"inconclusive [inhibitor, partial curve]"
CN(C)c1cccc(C(=O)Nc2cccc(F)c2)c1,,"inconclusive [inhibitor, single point]"
COCC1CCN(Cc2cn(C)nc2-c2cccc(Cl)c2)C1 (stereo not given),inactive: 8.86%,
COc1ccc(N2CCN(Cc3nc4ccccc4c(=O)[nH]3)CC2)cc1,inactive: -13.2%,
N#Cc1ccccc1CSC1=NCCS1,,"inconclusive [inhibitor, single point]"
Cc1cccc2cc(CN(CC3CCCO3)C(=O)NC3CCCCC3)c(=O)[nH]c12 (stereo not given),inactive: -6.96%,

# Reference: PubChem BioAssay AID1030 (National Center for Advancing Translational Sciences (NCATS), 2008)
